According to PubChem BioAssay AID1477 (National Center for Advancing Translational Sciences (NCATS), 2009):
In all, about 230,000 compounds went through this assay and fewer than 10 were called active. The shares of active, inactive and inconclusive entries below differ from those in the screen. The call rests on the fitted dose curve; in most records, active means well fitted curve in the direction sought with a large enough effect; inconclusive means small, poorly fitted or top-dose-only effect, or effect the other way, or another doubt; inactive means no such curve, though single readings can be large or run the other way. Potencies of inconclusive entries are left out as doubtful fits.

The compounds below were run against Runt-related transcription factor 1 (Homo sapiens) + Core-binding factor subunit beta (Homo sapiens) (UniProt Q01196+Q13951) (assay: qHTS Assay for Compounds Blocking the Interaction Between CBF-beta and RUNX1 for the Treatment of Acute Myeloid Leukemia). Settings: AlphaScreen CBFb-His/RUNX1-biotin binding, biochemical; activity, negative = inhibition: at 59.8 µM (top of the series) unless noted.
UniProt Q01196, sequence (Q01196 whole entry, looked up): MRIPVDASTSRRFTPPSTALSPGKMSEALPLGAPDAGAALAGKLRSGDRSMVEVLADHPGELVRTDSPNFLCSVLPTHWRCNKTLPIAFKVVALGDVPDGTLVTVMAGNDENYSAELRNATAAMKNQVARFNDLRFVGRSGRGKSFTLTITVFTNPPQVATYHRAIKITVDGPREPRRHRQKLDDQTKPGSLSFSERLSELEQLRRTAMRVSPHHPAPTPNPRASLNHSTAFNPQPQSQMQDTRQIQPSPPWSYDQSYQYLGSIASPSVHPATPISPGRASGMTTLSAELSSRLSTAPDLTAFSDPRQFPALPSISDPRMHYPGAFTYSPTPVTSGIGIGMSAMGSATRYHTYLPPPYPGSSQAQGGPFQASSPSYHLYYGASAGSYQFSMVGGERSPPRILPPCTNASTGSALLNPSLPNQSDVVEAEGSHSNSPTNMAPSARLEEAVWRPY
UniProt Q01196, sequence (Q13951 whole entry, looked up): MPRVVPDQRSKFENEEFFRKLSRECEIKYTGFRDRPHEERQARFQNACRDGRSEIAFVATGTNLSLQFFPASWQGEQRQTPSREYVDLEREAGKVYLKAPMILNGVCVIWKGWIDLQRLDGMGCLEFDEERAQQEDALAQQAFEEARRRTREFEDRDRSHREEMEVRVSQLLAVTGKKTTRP
Description: NIH Chemical Genomics Center [NCGC]
NIH Molecular Libraries Probe Production centers Network [MLPCN]
Assay Submitter (PI): Paul Liu
Core Binding Factor (CBF) abnormalities are associated with 20-25% of all acute myeloid leukemias (AML), of which 5-10% are further sub classified as acute myelomonocytic leukemia with eosinophilia, also known as M4Eo in the FAB classification scheme. This subtype of leukemia is usually associated with chromosome 16 inversion (p13:q22). Chromosome 16 inversion results in formation of the fusion oncogene CBFB-MYH11, which encodes the fusion protein CBF-beta-SMMHC.
It has been hypothesized that the interference of CBF-beta and RUNX1 binding could have therapeutic implications for patients with CBF mediated leukemias. We developed a CBF-beta and RUNX1 binding assay in AlphaScreenTM format and optimized it for high throughput screening to search for inhibitors. The goal of this project is to screen MLPCN's compound collection (MLSMR) for identifying the inhibitors of the interaction between CBF-beta and RUNX1 proteins as research probes. If these probes work well in the animal models, the ultimate goal of this project is to development a new drug treatment for this disease.
This assay can not be used to assess how apparent inhibitors interfere with protein binding, and whether inhibitors specifically bind to either protein. Disruption of this protein-protein interaction, through any mechanism, is the intended target activity.
NCGC Assay Protocol Summary:
Step, Parameter, Description
(1) Reagent, 3 uL CBFb-His/RUNX1-biotin mix incubated together for 20 minutes at room temperature (30 nM each)
(2) Compound or control, 23 nL compound stock solution
(3) Incubation, 15 minutes at Room temperature
(4) Reagent, 1 uL 50 ng each of beads (Nickel beads and streptavidin beads)
(5) Incubation, 90 minutes at Room temperature
(6) Detection, Excitation=365 nm Emission=440 nm, Envision reader in AlphaScreenTM mode
Keywords: MLSMR, MLPCN, NIH Roadmap, qHTS, NCGC, Core binding factor, CBF, CBF-beta, Acute myeloid leukemia
Wherever activity, negative = inhibition is given: % of control where 0% means no effect.

| SMILES | Potency | activity, negative = inhibition |
| --- | --- | --- |
| COc1ccc(/C=C/c2nc3ccccc3n2Cc2ccccc2OC)cc1 | inconclusive [activator, partial curve] |  |
| COC(=O)CCCC1=CC2=CC(=O)C(C)(OC(=O)c3cccs3)C(=O)C2=CN1Cc1ccco1 (stereo not given) | inconclusive [inhibitor, single point] |  |
| COc1cc2c(cc1OC)CN(C(=S)Nc1ccc(Cl)cc1)CC2 | inactive |  |
| Cc1cccc(S(=O)(=O)Nc2ccc(C)c3c2OC(C)(C)C3)c1 | inconclusive [activator, single point] |  |
| C#CCOCCOCCOCCNc1nc(N2CCN(C(=O)C(Cc3cc4ccccc4[nH]3)n3cc(C(N)C(C)CC)nn3)CC2)nc(N2CCN(C(=O)C(Cc3cc4ccccc4[nH]3)n3cc(C(N)C(C)CC)nn3)CC2)n1 (stereo not given) | inconclusive [inhibitor, partial curve] |  |
| O=[N+]([O-])c1ccc(N/N=C/c2ccc(O)c(O)c2O)c(S(=O)(=O)N2CCOCC2)c1 | inconclusive [inhibitor, partial curve] |  |
| CC(=O)N(Cc1cccs1)Cc1cc2ccc(C)c(C)c2nc1Cl | inconclusive [activator, single point] |  |
| Cc1noc(C)c1-c1ccc2ncnc(NCc3ccc4[nH]ccc4c3)c2c1 | inconclusive [inhibitor, partial curve] |  |
| COc1ccc(CN=C2NN=C(c3ccc(Cl)cc3)CS2)cc1 | inconclusive [inhibitor, partial curve] |  |
| CC(NC(=O)c1ccc([N+](=O)[O-])cc1[N+](=O)[O-])c1ccc(-c2ccccc2)cc1 (stereo not given) | inactive |  |
| CCO[Si](CCCN)(OCC)OCC | inconclusive [activator, full curve] |  |
| O=C(COC(=O)c1ccccc1O)Nc1cc([N+](=O)[O-])ccc1Cl | inactive |  |
| COc1cc2c(cc1O)C[C@H]1c3c(cc(OC)c(O)c3-2)CCN1C | inconclusive [inhibitor, partial curve] |  |
| Cc1ccccc1NC1=NS(=O)(=O)c2ccccc21 | inactive |  |
| COc1ccc(N=C2NC(=O)/C(=C\C=C\c3ccco3)S2)cc1 | inconclusive [inhibitor, partial curve] |  |
| COc1ccccc1-n1cnc2cc(NCc3ccccn3)ccc21 | inconclusive [inhibitor, single point] |  |
| O=C(Nc1ccc(F)cc1F)c1noc2c1CCC2 | inconclusive [inhibitor, single point] |  |
| C=C(C)[C@H]1C2C(=O)O[C@H]1[C@H]1OC(=O)[C@@]34O[C@@H]3C[C@]2(O)[C@@]14C | inconclusive [activator, partial curve] |  |
| O=C(N/N=C/c1ccco1)C1CC1c1ccccc1 (stereo not given) | inconclusive [inhibitor, single point] |  |
| CCOc1ccc(NC(=S)Nc2ccc(C)c([N+](=O)[O-])c2)cc1 | inactive |  |
| COC(=O)C/C=C\[C@@H](C)[C@@H](/C=N\OCC[C@@H]1C=C[C@H](OC(C)=O)[C@H](COC(C)=O)O1)OC |  | inactive: 10.5% [at 13.1 µM] |
| COc1ccc(C2C(C#N)=C(N)Oc3c2c(C)nn3-c2ccccc2)cc1Cn1nc(C)c([N+](=O)[O-])c1C (stereo not given) | inconclusive [inhibitor, single point] |  |
| CN1C(=O)N(C)C(=O)C2(Cc3c(nc4ccccn4c3=O)N3CCc4ccccc4C32)C1=O (stereo not given) | inactive |  |
| COc1ccccc1/C=C\C=N\n1c(-c2ccc(Cl)cc2)n[nH]c1=S | inactive |  |
| CCNC(=S)N(Cc1cc2cc(C)ccc2[nH]c1=O)C1CCCC1 | inconclusive [activator, single point] |  |
| COC(=O)c1ccc(-c2nc3ccc(C)cc3o2)cc1 | inactive |  |
| NS(=O)(=O)c1ccc(NC(=O)COC(=O)c2cn(-c3ccccc3)nc2-c2ccccc2)cc1 | inactive |  |
| CCOC(=O)Cn1nc(C)cc1NC(=O)c1cccnc1 | inactive |  |
| O=C(O)c1ccccc1/C=N/NC(=S)NCc1ccccc1 | inactive |  |
| Cc1cccc(NC(=S)N(CCN(C)C)C(C)c2ccccn2)c1 (stereo not given) | inconclusive [inhibitor, partial curve] |  |
